According to PubChem BioAssay AID1645882 (National Center for Advancing Translational Sciences (NCATS), 2021):
Several values for one entry are separate records, joined by “and”; a condition that tells them apart may be missing. Equal entries are not always repeated. Hit rate of the full screen: of about 16,000 compounds, about 120 (0.75%) were called active. About 4% were inconclusive and are not listed. The call rests on the fitted dose curve; in most records, active means well fitted inhibition curve with a large enough effect; inconclusive means small, poorly fitted or top-dose-only effect; inactive means no such curve, though single readings can be large or run the other way. This is one part of the list. Where a structure was tested more than once in an assay, its records may differ in their call.

target: Rap guanine nucleotide exchange factor 3 (Homo sapiens) (UniProt O95398); experiment: Validation qHTS for antagonist of cAMP-regulated guanine nucleotide exchange factor 3 (EPAC1); details: EPAC1 Rap1B-BODIPY-GDP exchange, fluorescence; series mostly up to 150 µM; activity change, negative = inhibition: at the top concentration; further: nearly all actives have a fitted effect of over 75% in size;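 on activity change, negative = inhibition: plate controls were DMSO for no effect and ATA control for full effect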
UniProt O95398, sequence (O95398 whole entry, looked up): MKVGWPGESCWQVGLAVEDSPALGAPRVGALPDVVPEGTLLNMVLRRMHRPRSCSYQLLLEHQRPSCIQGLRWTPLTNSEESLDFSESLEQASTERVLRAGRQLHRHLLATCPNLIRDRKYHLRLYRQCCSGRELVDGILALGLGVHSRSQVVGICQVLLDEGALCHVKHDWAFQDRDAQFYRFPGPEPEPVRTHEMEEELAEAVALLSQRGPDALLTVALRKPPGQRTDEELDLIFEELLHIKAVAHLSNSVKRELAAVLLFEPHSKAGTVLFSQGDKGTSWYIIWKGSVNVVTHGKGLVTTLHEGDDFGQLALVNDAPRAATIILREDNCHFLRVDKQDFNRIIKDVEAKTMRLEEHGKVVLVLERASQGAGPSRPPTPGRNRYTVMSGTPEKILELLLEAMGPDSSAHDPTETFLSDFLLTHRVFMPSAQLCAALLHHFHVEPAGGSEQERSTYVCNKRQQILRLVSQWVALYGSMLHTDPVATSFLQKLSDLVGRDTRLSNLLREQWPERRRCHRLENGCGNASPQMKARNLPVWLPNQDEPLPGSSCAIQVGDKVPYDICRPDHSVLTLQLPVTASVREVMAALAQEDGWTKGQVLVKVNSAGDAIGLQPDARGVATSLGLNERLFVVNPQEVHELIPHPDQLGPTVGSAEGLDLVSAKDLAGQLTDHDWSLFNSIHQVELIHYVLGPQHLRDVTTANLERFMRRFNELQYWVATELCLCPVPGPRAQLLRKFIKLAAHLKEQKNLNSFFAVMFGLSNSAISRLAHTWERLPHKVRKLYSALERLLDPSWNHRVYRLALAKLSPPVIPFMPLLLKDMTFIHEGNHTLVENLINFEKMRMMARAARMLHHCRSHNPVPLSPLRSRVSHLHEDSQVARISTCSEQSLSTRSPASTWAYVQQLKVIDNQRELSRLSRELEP
Outline: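 Nucleotide exchange followed as fluorescence loss when BODIPY-GDP leaves Rap1B (480 nm excitation, 540 nm emission), read at 5 min intervals over 30 min. Reaction: 100 nM EPAC1, 250 nM RAP1B-BODIPY-GDP, 50 uM GDP; ATA and DMSO define normalization.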
Potency means the concentration at half of the fitted maximal effect.

Activity change, negative = inhibition, inactive:
S=C(S)N1CCCC1, COc1ccc(Oc2ncc3nc(-c4cc(F)cc(F)c4)c(=O)n(C)c3n2)cc1 14.5%, COc1ccc(-c2coc3cc(OC(C)=O)cc(OC(C)=O)c3c2=O)cc1 2.18%, NC(=O)NCCC[C@H](N)C(=O)O -1.86%, CC(C)C[C@H]1C(=O)N2CCC[C@@H]2[C@]2(O)O[C@](NC(=O)[C@@H]3C=C4c5cccc6[nH]c(Br)c(c56)C[C@H]4N(C)C3)(C(C)C)C(=O)N12 6.89%, O=C1CC2(CCCC2)CC(=O)N1CCCCNC[C@H]1COc2ccccc2O1 5.46%, c1ccc(-c2ccc(N3CCCC4(CCNCC4)C3)cc2)cc1 12.4%, COC(=O)c1ccccc1NS(C)(=O)=O 21%, NC(N)=NC(=O)c1nc(Cl)c(N)nc1N, Cc1noc(C)c1C(=O)N1CCC2(CC1)CN(c1cccc(-c3ccccc3)c1)C2 3.65%, Cc1noc(C)c1-c1ccc2ncnc(N3CCOCC3)c2c1 17.9%, O=c1c(-c2ccc(F)cc2)nc2cncnc2n1C1CC1 13.4%, CN(C)c1ncc2nc(-c3cccs3)c(=O)n(CCC#N)c2n1 20.7%, COc1ccc(CN2CC[C@H]3C=CC[C@@H](C(=O)N4CCOCC4)[C@H]3C2=O)cc1OC 10%, CO[C@@H]1[C@@H](O[C@@H]2O[C@H](C)[C@@H](O[C@H]3C[C@@](C)(O)[C@@H](OC(=O)CC(C)C)[C@H](C)O3)[C@H](N(C)C)[C@H]2O)[C@@H](CC=O)C[C@@H](C)C(=O)/C=C/C2OC2C[C@@H](C)OC(=O)C[C@H]1OC(C)=O (some centres not stated) 4.21%, COc1ccc(Oc2ncc3nc(C)c(=O)n(C4CC4)c3n2)cc1 10.7%, N#Cc1cccc(-c2nc3cnc(N4CCOCC4)nc3n(C[C@H]3CCCO3)c2=O)c1 14.3%, CCOC(=O)c1ccccc1O, COCC(C)NCc1cc2ccc(OC)cc2nc1N1CCN(c2ccc(F)cc2)CC1 (configuration not stated) 11.7%, CN1C(=O)CC[C@H]1c1cccnc1, CC(C)N1CCN(c2ccc(OC[C@H]3CO[C@](Cn4cncn4)(c4ccc(Cl)cc4Cl)O3)cc2)CC1 17% [at 75.8 µM], COC(=O)C[C@H]1c2ccccc2S(=O)(=O)N1c1ccc(N(C)C)cc1 -2.08%, CC[C@@]1(O)C[C@H](O[C@H]2C[C@H](N(C)C)[C@H](O[C@H]3C[C@H](O)[C@H](O[C@H]4CCC(=O)[C@H](C)O4)[C@H](C)O3)[C@H](C)O2)c2c(cc3c(c2O)C(=O)c2c(O)cccc2C3=O)[C@H]1C(=O)OC 2.46%, Cc1ccc(O)c(C(CCN(C(C)C)C(C)C)c2ccccc2)c1 (configuration not stated) 16%, COc1ccc(C(=O)C2C3C4COC(O4)C(=O)C3C3C=Cc4ccccc4N32)c(OC)c1 (configuration not stated) -8.96%, Cc1nc2cnc(N3CCNCC3)nc2n(CCC#N)c1=O 21.3%, CCC(C)(Oc1ccc(C2(c3ccc(OC(C)(CC)C(=O)O)cc3)CCCCC2)cc1)C(=O)O (configuration not stated) 15.4%, COc1ccccc1CNc1ncncc1-c1ccccc1C(F)(F)F -7.14%, OCC1NCC(O)C(O)C1O (configuration not stated) 1.69% [at 75.8 µM], CCn1c(-c2ccccc2F)nc2cc(NC(C)=O)cc(C(=O)N(C)Cc3ccc4nccnc4c3)c21 -3.33%, COC(=O)c1c(OCc2ccc(F)cc2)cc(=O)n2c1CCN(Cc1ccc3cccnc3c1)CC2 9.15%, CN(C)C(=O)c1ccc(-c2nccc(Nc3ccc(F)cc3)n2)cc1 3.19%, O=C(NNCS(=O)(=O)O)c1ccncc1 458%, CCn1c(=O)[nH]c2cc(Cl)c(Cl)cc21, C[C@@H]1CN(Cc2ccc3c(c2)CN(Cc2cccn2-c2ccccn2)CCO3)C[C@H](C)O1 18.6%, Nc1ncnc2c1ncn2[C@H]1O[C@H](CO)[C@@H](O)[C@@H]1O 6.48%, CC(C)[C@@H]1CC[C@@H](C)C[C@H]1OC(=O)c1ccccc1O 10.8%, COCc1c(C(=O)N2CCN(C3CCCCC3)CC2)cnn1-c1ncc(C)c(-c2cccs2)n1 10.3%, O=C(c1ccncc1)N1CCC2(CC1)CN(C(c1ccccc1)c1ccccc1)C2 16.1%, COc1ccc(Cl)cc1N=Nc1ncc[nH]1, Cc1c(-c2ccc(O)cc2)nn(-c2ccc(O)cc2)c1-c1ccc(OCCN2CCCCC2)cc1 -26.4%, CCCCCCCCCC(=O)N[C@H](CN1CCOCC1)[C@H](O)c1ccccc1 8.09% [at 15.3 µM], CN1[C@@H]2CC[C@H]1CC(OC(=O)C(O)c1ccccc1)C2 (some centres not stated), CC/C=C\C/C=C\C/C=C\CCCCCCCCCCCC(=O)O 7.32% [at 15.3 µM], O=C(c1ccncc1)N1CCC2(CCN(Cc3ccncc3)CC2)CC1 8.44%, CO/N=C(\C(=O)N[C@@H]1C(=O)N2C(C(=O)[O-])=C(C[n+]3cccc4c3CCC4)CS[C@H]12)c1csc(N)n1 -26.8%, CCCCCCCC/C=C\CCCCCCCC(N)=O, COc1ccccc1N1CCN(CCCCNC(=O)c2ccc(-c3ccc(C(C)=O)cc3)cc2)CC1, CC(O)(COc1ccccc1)c1ccc2c(c1)CN(Cc1cccc3cccnc13)CCO2 (configuration not stated) -7.35%, NC(=O)CCCCC1CCSS1 (configuration not stated) 18.1%, CC(Oc1ccccc1)C(=O)N[C@@H]1C(=O)N2C(C(=O)O)C(C)(C)S[C@H]12 (some centres not stated) 9.13%, CC(C)NC[C@@H](O)COc1ccc(CC(N)=O)cc1 13.9%, CCNc1ncc2nc(-c3ccccc3)c(=O)n(CCC#N)c2n1 26.1%, NS(=O)(=O)c1cc2c(cc1C(F)(F)F)NCNS2(=O)=O, C=C1/C(=C\C=C2/CCC[C@]3(C)[C@@H]([C@H](C)OCCC(C)(C)O)CC[C@@H]23)C[C@@H](O)C[C@@H]1O -4.66%, COC1(C2=NCCN2)COc2ccccc2O1 (configuration not stated) 17.4% [at 75.8 µM], O=C(C[n+]1ccccc1)c1cccc([N+](=O)[O-])c1 22.2%, CC(O)Cn1cnc2c1c(=O)n(C)c(=O)n2C (configuration not stated) 12.4% [at 75.8 µM], Cc1cnc(CNc2ccnc(-c3ccc(N(C)C)cc3)n2)cn1 22.5%, NCCCC[C@H](N)C(=O)O 16.3%, COc1ncc2nc(-c3cccs3)c(=O)n(Cc3ccc(F)cc3)c2n1 -18.1%, Cc1ccccc1-c1nc(NC2CCNCC2)c2ccccc2n1 29.9%, COc1cccc(Cn2c(=O)c(-c3cn(C)c4ccccc34)nc3cnc(OC)nc32)c1 15.8%, Nc1cc(=O)[nH]c(N)n1, O=C(OOC(=O)c1ccccc1)c1ccccc1 17.1%, N[C@@H](Cc1c[nH]c2ccccc12)C(=O)O -10.1% [at 75.8 µM], O=C(O)c1nc(=O)[nH]c(=O)[nH]1 1.18%, Oc1ccc(Cl)cc1CN1CCOc2c(O)cc(-c3nc4ccccc4s3)cc2C1 -0.949%, Cc1cc(C)n(CCC(=O)NCC2Cc3cc(Cl)cc(-c4cnccn4)c3O2)n1 (configuration not stated) 9.37%, NC(=O)CCCCn1ccc(NC(N)=NCC(F)(F)F)n1, O=C(Nc1ccccc1)[C@@]12C[C@@H]1/C(=N/O)c1ccccc1O2 -12.5%, OCc1c[nH]c2ccccc12, COC(=O)C1=C(C)NC(C)=C([N+](=O)[O-])[C@H]1c1ccccc1C(F)(F)F -26.3%, COc1ccc(CNC(=O)c2cnn(-c3nccc(-c4ccco4)n3)c2C)cc1OC 17.1%, CC(=O)NCc1c(I)c(NC(C)=O)c(I)c(C(=O)O)c1I 26.6%, O=S1(=O)CCOC[C@H](Cc2ccccc2)N1Cc1ccccc1Br -9.16%, Cc1nnc(C(C)C)n1C1C[C@H]2CC[C@@H](C1)N2CC[C@H](NC(=O)C1CCC(F)(F)CC1)c1ccccc1 (some centres not stated) -5.92%, O=C(Nc1ccc(Br)cc1)c1cc(Br)c(Br)s1 -4.03%, COc1ccc(C(=O)N2CCC3(CCN(C)CC3)CC2)cc1 13.2%, O=C(/C=C/c1ccc(O)cc1)c1ccc(O)cc1O, Cc1ccc2[nH]c(C(=O)N3CCc4c(cnc(C)c4CNC(=O)c4ccccc4F)C3)cc2c1 19.3%, CCCCCCCCC(=O)NCc1cc(OC)c(O)cc1I 7.94%, Cc1c(NC(=O)c2cccnc2)c(=O)n(-c2ccccc2)n1C, Nc1nc2nc(Cl)[nH]c2c(=O)[nH]1 3.33%, C[C@]12CCC(=O)C=C1CCC1C3CC[C@](O)(C(=O)CO)[C@@]3(C)CC3OC312 (some centres not stated) 8.61%, CCOC(=O)C1CCCCN1C(=O)c1ccc(-n2cc(NC(=O)c3cccnc3)cn2)cc1 (configuration not stated) 3.46%, CS(=O)(=O)OCCCCOS(C)(=O)=O, COc1cccc(CNC(=O)c2c(OC)cc(=O)n3c2CCN(C(=O)C2CC=CCC2)CC3)c1 (configuration not stated) 12.6%, N[C@@H](Cc1cc(I)c(Oc2ccc(O)c(I)c2)c(I)c1)C(=O)O, Cc1cc(=O)oc2cc(O[C@@H]3O[C@H](C(=O)O)[C@@H](O)[C@H](O)[C@H]3O)ccc12 13%, COc1cc(OC)c2nc(-c3cc4c(c(OC)c3)OCCN(C(=O)CC3NC(=O)c5ccccc53)C4)cc(C)c2c1 (configuration not stated) -5.65%, O=C(c1ccco1)N1CCC2(CCN(Cc3ccccc3)CC2)CC1 2.54%, c1cncc(CNc2ncncc2-c2cccnc2)c1 3.26%, Cc1ccc2oc(-c3ccccc3)cc(=O)c2c1 -12.6%, COC1C(O)C(CO)OC1n1cnc2c(=O)[nH]c(N)nc21 (configuration not stated) 17.4%, Cc1cnc(-n2ncc(C(=O)NCc3ccccn3)c2C2CC2)nc1-c1cccs1 19.3%, O=C1C[C@H]2C=CCc3cccc(c32)CN1Cc1ccccc1 12.6%, CNc1ncnc2ccc(-c3cccc(NS(C)(=O)=O)c3)cc12 25.4%, COc1ccc(S(=O)(=O)NCc2nc(N3CCCC3)c3cccc(C)c3n2)cc1OC 17.6%, CC[C@@]1(c2ccccc2)NC(=O)N(C)C1=O 17.6%, O=C(OC[C@H]1O[C@](O)(COC(=O)c2cccnc2)[C@@H](OC(=O)c2cccnc2)[C@@H]1OC(=O)c1cccnc1)c1cccnc1 16.7%

Potency, inactive and 25.1 µM (active):
O=c1oc2c(O)c(O)cc3c(=O)oc4c(O)c(O)cc1c4c23
